Reference: PubChem BioAssay AID588795 (National Center for Advancing Translational Sciences (NCATS), 2011)
Out of some 390,000 compounds screened, about 1,400 (0.36%) were called active. Inconclusive results, whose numbers are uncertain, are shown with a selection of clear calls. The call rests on the fitted dose curve; in most records, active means well fitted inhibition curve with a large enough effect; inconclusive means small, poorly fitted or top-dose-only effect; inactive means no such curve, though single readings can be large or run the other way. Potencies of inconclusive entries are doubtful fits and often do not repeat.

What follows are compounds tested against Flap endonuclease 1 (Homo sapiens) (UniProt P39748) (assay: qHTS Assay for the Inhibitors of Human Flap endonuclease 1 (FEN1).). Settings: Recombinant FEN1 flap cleavage, fluorescence, 15 min; series mostly up to 114 µM; activity change, negative = inhibition: at the top concentration.
How it was run: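 Potency values derive from four-parameter Hill fits of normalized qHTS data. The reaction used 10 nM FEN1 preincubated 15 min at room temperature with compound, then 50 nM DNA substrate, read at 0 and 15 min.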
Further: nearly all actives have a fitted effect of over 65% in size.
On the % scale 0 is the no-effect control and ±100 the full control effect; potency means the concentration at half of the fitted maximal effect; tags describe the fitted curve by direction and shape.

Chain of UniProt P39748 (P39748 whole entry, looked up): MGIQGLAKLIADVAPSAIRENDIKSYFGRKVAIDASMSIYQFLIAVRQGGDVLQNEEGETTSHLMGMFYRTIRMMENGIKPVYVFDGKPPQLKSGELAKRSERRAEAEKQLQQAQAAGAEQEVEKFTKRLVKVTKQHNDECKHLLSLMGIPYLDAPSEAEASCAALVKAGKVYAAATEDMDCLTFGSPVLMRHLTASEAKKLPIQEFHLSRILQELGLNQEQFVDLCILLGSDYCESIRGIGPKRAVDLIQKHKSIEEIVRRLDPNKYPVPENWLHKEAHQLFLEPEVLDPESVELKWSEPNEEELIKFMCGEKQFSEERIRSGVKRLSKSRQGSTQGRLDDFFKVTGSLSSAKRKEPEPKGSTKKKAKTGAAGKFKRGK

SMILES | Potency | activity change, negative = inhibition
CN1CCN(C(=S)C(=O)Nc2ccc(Br)cc2)CC1 | inconclusive: 89.1 µM [inhibitor, partial curve, poor fit] | –
O=C(N=Nc1c(O)[nH]c2ccccc12)c1cc(-c2cccs2)[nH]n1 | inconclusive: 79.4 µM [inhibitor, single point] | –
O=C(CCN1CCN(C(c2ccccc2)c2ccccc2)CC1)N/N=C/c1ccc(O)cc1 | inconclusive: 56.2 µM [inhibitor, partial curve, poor fit] | –
CCc1cccc(-n2nnc(-c3nc(-c4ccc5c(c4)OCO5)no3)c2C)c1 | – | inactive: 2.43%
Nc1ccc2nc(-c3ccc(Cl)cc3)[nH]c2c1 | inconclusive: 79.4 µM [inhibitor, partial curve, poor fit] | –
CCOc1cc(CNCCN2CCOCC2)ccc1OCc1ccccc1Cl | inconclusive: 100 µM [inhibitor, single point] | –
COc1ccccc1NCC(O)Cn1c2ccccc2c2ccccc21 (centres undefined) | inconclusive: 56.2 µM [inhibitor, partial curve, poor fit] | –
CCn1c2ccccc2c2nc3cc(C(=O)O)ccc3nc21 | inconclusive: 12.6 µM [inhibitor, partial curve, poor fit] | –
O=C(O)c1cc(Cl)ccc1-c1ccc(/C=C/c2cc(C(F)(F)F)[nH]c(=O)n2)o1 | inconclusive: 50.1 µM [inhibitor, partial curve, poor fit] | –
COc1ccc2ncc3c(-c4ccccc4)nn(-c4ccc(C)c(C)c4)c3c2c1 | – | inactive: 1.67%
CCOC(=O)c1[nH]c2c(c1C)C(=O)CC(c1ccco1)C2 (centres undefined) | inconclusive: 39.8 µM [inhibitor, single point] | –
Cc1ccc2c(c1)c1n[nH]c(=S)nc1n2CCc1ccccc1 | – | inactive: 0.329%
c1cncc(Nc2c3ccccc3nc3ccccc23)c1 | inconclusive: 39.8 µM [inhibitor, partial curve, poor fit] | –
CCOC(=O)C1CCCNC1=O (centres undefined) | – | inactive: 11.6%
Oc1c(Br)cc(C2N=C(c3ccccc3)NO2)cc1Br (centres undefined) | – | inactive: 11.3%
Cc1c(/C=C2\SC(=Nc3cccc(C(=O)O)c3)NC2=O)c2ccccc2n1C | inconclusive: 63.1 µM [inhibitor, partial curve, poor fit] | –
COc1cc(OC)c(NC(=O)c2nn(C)c3c2COc2ccccc2-3)cc1Cl | – | inactive: 7.7%
NS(=O)(=O)c1ccc(CNC(=O)CSc2nc3ccc(Cl)cc3[nH]2)cc1 | – | inactive: 8.06%
C#CCOc1c(Br)cc(C2C(C(=O)OC)=C(C)NC3=C2C(=O)c2ccccc23)cc1OCC (centres undefined) | inconclusive: 31.6 µM [inhibitor, partial curve, poor fit] | –
